From the supplement of paper PMC3334620
In all, about 33,000 sequences were measured (“E-score (-0.5 to 0.5)”: median about -0.04, highest 2% from about 0.36 on). This is one part of the list.

target: T1, Hmlalpha2 (UniProt P0CY09); experiment: PBM E-score (8-mer binding enrichment) (E-score (-0.5 to 0.5)); higher = stronger / more preferred TF binding; most listed sequences are background and not binding sites; details: protein concentration: 200 nM; construct: GST-full length
T1 sequence: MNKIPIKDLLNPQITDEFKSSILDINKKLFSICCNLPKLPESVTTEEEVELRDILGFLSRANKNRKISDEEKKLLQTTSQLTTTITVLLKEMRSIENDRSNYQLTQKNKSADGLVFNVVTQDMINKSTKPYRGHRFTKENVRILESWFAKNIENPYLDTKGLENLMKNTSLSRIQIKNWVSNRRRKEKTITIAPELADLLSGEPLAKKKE
Procedure, shortened: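 Detection of bound protein used fluorescent anti-GST, with scans normalised by masliner. The proteins were GST-tagged yeast transcription factors applied at about 100-200 nM to universal all-10-mer Agilent arrays made double-stranded by primer extension. Each ungapped eight-base word, pooled with its reverse complement, was scored with an E-score from the Universal PBM Analysis Suite.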

Sequence	PBM E-score
TAACAAGA	0.377
AAATACAG	0.172
GGACTCCC	-0.212
GATATGAC	-0.00016
AGACCTAA	-0.153
CAATCCCC	-0.072
TAATACGA	0.265
TCTAGAAA	0.0279
AGCGCTAA	0.0618
CTCTATAC	-0.00073
ATTAGTGG	0.0919
AAGTTAAG	0.0528
ACCGTTTA	0.0365
CATTAGGC	-0.103
CATACGAC	0.0792
CTCCAACA	0.224
ATACTCAA	0.151
AGTTCAAC	0.219
CATGCCGA	0.0781
AGTCTACA	0.169
AGGGGGCG	-0.3
CAACTGTG	0.152
ATAGAATG	0.0643
CGCGAGCA	-0.252
CCCTAAAC	-0.0769

Sequence	PBM E-score
TGCTCGAA	-0.0384
GTTTCTGA	-0.0402
AGACTAAC	-0.102
ACCGTAAC	-0.163
AACCAGAT	-0.0675
CGGGTCTC	-0.112
GGGAGTTA	-0.0673
CGGACCAA	0.0624
CTAAACGC	0.0917
TACCACCA	-0.177
ATTTCTGA	-0.0365
GCATGGGC	-0.183
AAGCCCCC	-0.343
GGGGCAAC	-0.213
AGTTTTCG	0.041
ATACTTAG	0.0132
GGCCTGCA	-0.339
CCCTCATA	-0.228
ACCTATAC	0.164
ATTGTAAA	0.374
ATTCAACG	0.196
ATGGACTC	-0.146
TATAGATA	-0.0163
CTGGGTCA	-0.137
AGTGGTGG	-0.204

Sequence	PBM E-score
GGCGGCAC	-0.325
CCCTGTTA	0.188
GAGCTGTA	-0.138
CATGTGCG	0.12
AAATAAAT	0.205
AGGGGCTA	-0.148
TCACGCAA	0.243
CGTCACTC	-0.174
CGTGCCAA	-0.066
GTCTGCCA	-0.221
AATCTGCC	-0.0678
AAATTAAA	0.224
ACTGGCCA	-0.137
GTCTCCGA	-0.14
ACGAAACA	0.113
GCATCAGA	0.174
AACGTCTT	0.0322
GTACCCTA	-0.0877
TATGTGCA	0.103
CGCTGACG	-0.21
TATAAACA	0.358
ACACCTGT	0.0454
GCCGCTCC	-0.265
CAGTTTGA	-0.0778
AAGGCGCT	-0.105

Sequence	PBM E-score
CGCTGCAA	0.106
AATTCTCT	-0.191
GTCACAAA	0.143
CCCCGGAG	-0.315
GATAATTA	0.21
CACTGACG	-0.0973
CGCTCAAA	-0.0575
CCGTTCTC	-0.21
CGCAGCCG	-0.189
AGAGGGTA	-0.0823
AACTGCTG	-0.13
AAATAGGA	0.0479
AGTGTACG	0.175
AGCTACCG	-0.257
ATCCAATA	0.0909
CGTTAGCC	0.00572
TAAGCGGA	-0.131
ACGCCACT	0.0131
CAGAACTA	-0.0471
CCCAACCC	-0.119
GATTGTGA	-0.174
GAAAGGAC	-0.146
GTTGAGCA	0.111
GACAGCTC	-0.251
TACTCTCA	0.103

Sequence	PBM E-score
CGAAGCGC	-0.162
CCGAGCCC	-0.393
CGCCGGTC	-0.305
ATAGTTAA	0.202
AGTTTGCC	-0.133
AAAATTGA	0.0788
CCCTACCA	0.00547
CTACTGTA	0.0817
TGGTCTAA	-0.107
GACAGGCC	-0.143
GCGGCAGA	-0.247
CGAAAGGC	-0.175
AGAGGACA	-0.252
ATCTAACC	-0.0186
GTGTCATA	0.301
CGAAGGCG	-0.254
AGTTCGCA	-0.086
ATCGCGAC	-0.192
AACCGCAT	0.0219
CCCAACGG	-0.162
CCTGAGAG	-0.386
AAGCCACC	-0.269
ACCCGTTC	-0.0776
AATTGGCT	-0.0667
ACTAAACT	-0.00206

Sequence	PBM E-score
CGTTTAAC	0.365
CGAGCTAG	0.0549
ATGACAAA	0.145
GCATTCAC	0.0435
ACATCGGC	0.0159
AAGAATAA	0.204
ACAATAGT	0.0925
GCAAAGAC	-0.121
AAACTTCG	0.143
AACAGACG	-0.0138
ACTTGGAA	-0.144
ACGGCAAG	-0.0844
CCAGACGA	-0.072
ATCTGGCA	-0.00874
AATGCCAC	-0.321
GTCGTATA	0.184
CTACATGC	0.429
AAGGAGCT	-0.163
AATGGAAC	-0.0113
AAGAATAG	0.0538
ACCAGAGC	-0.00515
AACTCAAG	0.0624
GCGACCCC	-0.205
ACTTGGCG	-0.0588
AGTTGGTA	0.231

Sequence	PBM E-score
CGAAAGCG	-0.123
AGGGCTCC	-0.39
GGGACATA	-0.191
CCTTGTCG	0.124
ATCTCATG	0.141
CGTCGTAC	0.149
ACTGGAGC	-0.218
GGCACGAA	-0.0458
AATTAAGT	0.215
CAGATCTG	-0.0129
CGACAAAC	0.0428
AATTCAGA	0.0727
TGACCTCA	-0.207
CACGGGGG	-0.121
CTTGGCAA	-0.143
GGAGTACA	0.129
CAATGCTG	0.0578
ACAAAACT	0.257
GGAATTCA	0.105
CAAAAGCG	-0.045
AATCTAGG	0.0173
ACAGTGTG	0.0915
AGCGTGTA	0.472
GTTGATCA	0.211
CCAAAAGG	-0.136

Sequence	PBM E-score
GAATAGAC	-0.0252
GAAACCGA	-0.197
ACTGATGA	-0.0022
GTGGGTGA	-0.154
ACATAATA	0.362
CCTCAATC	0.0418
CCAGCAGA	-0.057
CTGCAAGC	-0.184
CTGATCAA	-0.234
CATCGGAG	-0.113
ACAAATTC	0.0996
CAATCGGC	-0.156
CAGTATTC	0.0159
CCAAGCTC	-0.0156
CACAATAA	-0.0303
GCCGCACC	-0.103
CCTGACAG	-0.111
GCCAAACA	-0.107
TGTGCCAA	0.0662
GCCGAAAA	0.0332
CTGTACGC	0.16
CTAGTGCA	-0.0988
AGTCAACT	-0.172
GCTCGGCC	-0.31
GCAAAGCA	-0.0829

Sequence	PBM E-score
CTATCGAC	-0.217
AATCGGGA	-0.0331
AGGGCTCA	-0.0529
ACAGTACT	0.125
CTCCCGTC	0.0214
CTGGAGCA	-0.292
GACGGCTC	-0.188
CCTATCTC	-0.186
TATGGCAA	0.0269
AAATACCC	-0.0433
AAGCTTGT	0.332
CCTGATCC	-0.332
CGAGCTTA	-0.113
GCCGTCAA	0.0499
AAGGTTTG	0.00619
AGCGACAA	0.00782
GTTTGGCA	-0.0431
CTTCTGCC	-0.181
AAGTTCGA	0.127
